# Experimental data reported in the supplement of paper PMC9446081.
# The whole screen tested about 39,000 compounds, of which about 220 (0.56%) showed activity. The list shows a part of the results.
# System: Escherichia coli K-12 BW25113
# Assay: relative growth (OD600 normalised to plate interquartile mean) (fraction); higher = less growth inhibition, active = 0.2 or less
# Conditions: 50 µM; LB; incubation time: overnight (16-24 h)
# 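Also: static incubation at 37 °C against the wild-type strain, values averaged over two biological replicates.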
row,SMILES,relative growth
1,Cc1noc(C)c1S(=O)(=O)N(C)C[C@H]1Oc2ccc(NS(=O)(=O)c3ccc(F)cc3)cc2C(=O)N([C@H](C)CO)C[C@H]1C,inactive: 0.973
2,C[C@H](CO)N1C[C@H](C)[C@H](CN(C)Cc2ccc(-c3ccccc3)cc2)Oc2ccc(NS(=O)(=O)c3ccccc3)cc2C1=O,inactive: 0.985
3,C[C@@H]1CCCCO[C@@H](CN(C)Cc2ccc(C(F)(F)F)cc2)[C@@H](C)CN([C@@H](C)CO)C(=O)c2cc(NC(=O)Nc3ccc(F)cc3)ccc2O1,inactive: 1.02
4,CC(C)(CO)[C@@H](O)C(=O)NCCCO,inactive: 1.01
5,COC(=O)c1c(N)c(C#N)c2n1CCC2,inactive: 0.983
6,Cc1nc(C2C(=N)N([C@H]3CS(=O)(=O)C[C@@H]3O)CC2=O)sc1C (stereo partly specified),inactive: 1.01
7,C[C@H](CO)N1C[C@H](C)[C@H](CN(C)C(=O)Nc2cccc(Cl)c2Cl)OCc2ccccc2-c2ccccc2C1=O,inactive: 0.995
8,C[C@@H](O)[C@@H](O)[C@@H](O)C/C=N/NC(=O)CCCCC(=O)NO,inactive: 0.96
9,C[C@@H]1CCCCO[C@@H](CN(C)Cc2ccccc2)[C@@H](C)CN([C@@H](C)CO)C(=O)c2cc(NC(=O)Cc3ccccc3)ccc2O1,inactive: 1.01
10,C[C@H]1NC(=O)N[C@@H]1CCCCC(=O)O,inactive: 0.914
11,CCOC(=O)CCc1n[nH]c(=O)[nH]c1=O,inactive: 1.01
12,C[C@@H]1CN([C@@H](C)CO)C(=O)c2cc(NC(=O)NC3CCCCC3)ccc2O[C@@H](C)CCCCO[C@H]1CN(C)S(=O)(=O)c1ccccc1,inactive: 1.03
13,C=CC[C@@H](CC(=O)N[C@H](CO)Cc1ccccc1)C(=O)NCCOC(=O)[C@@H](CC=C)CC(=O)OC(C)(C)C,inactive: 0.978
14,C[C@@H]1CN([C@@H](C)CO)S(=O)(=O)c2ccc(C#CC(C)(C)O)cc2O[C@H]1CN(C)Cc1ccncc1,inactive: 0.997
15,CO[C@H]1CN(C)C(=O)c2ccc(NC(=O)Nc3ccc(Cl)cc3)cc2OC[C@@H](C)N(C(=O)Nc2c(C)noc2C)C[C@@H]1C,inactive: 0.968
16,CC(=O)c1ccc2c(c1)N(CCCN(C)C)c1ccccc1S2.O=C(O)C=CC(=O)O,inactive: 0.983
17,Cc1noc(C)c1NC(=O)N(C)C[C@@H]1OCCCC[C@@H](C)Oc2ccc(NS(=O)(=O)c3ccc(Cl)cc3)cc2C(=O)N([C@H](C)CO)C[C@H]1C,inactive: 1.03
18,O=C(C[C@@H]1CC[C@H]2NC[C@H](O)COC[C@@H]2O1)NCCN1CCCC1,inactive: 1.01
19,C=CC1CN2CCC1CC2C(O)c1ccnc2ccc(OC)cc12.Cl (stereo unspecified),inactive: 1.07
20,CC(=O)N1[C@@H]2c3ccc(-c4ccccc4)c(=O)n3C[C@H]1[C@H](CO)[C@H]2C(=O)NCCCN1CCOCC1,inactive: 0.967
21,C[C@@H]1CN([C@H](C)CO)C(=O)c2cccc(NS(=O)(=O)c3cn(C)cn3)c2O[C@@H]1CN(C)C(=O)Nc1ccc2c(c1)OCO2,inactive: 0.993

row,SMILES,relative growth
1,COc1ccc(NC(=O)N(C)C[C@@H]2OCCCC[C@@H](C)Oc3ccc(NC(=O)Nc4ccccc4)cc3C(=O)N([C@H](C)CO)C[C@@H]2C)cc1,inactive: 1.01
2,COc1cc(/C=C(\C#N)C(=O)Nc2nnc(C(F)(F)F)s2)ccc1OCc1ccc(C(F)(F)F)cc1C(F)(F)F,inactive: 0.948
3,CC(C)[C@@H](N)c1nc2c([nH]1)CCCC2,inactive: 1.02
4,CC(C)NC(=O)Nc1cccc2c1O[C@H](CN(C)C(=O)NC1CCCCC1)[C@H](C)CN([C@H](C)CO)C2=O,inactive: 0.996
5,Nc1nnc(SCC(=O)N2CCOCC2)[nH]1,inactive: 0.975
6,COc1ccc(NC(=O)N(C)C[C@H]2Oc3c(NS(C)(=O)=O)cccc3C(=O)N([C@H](C)CO)C[C@H]2C)cc1,inactive: 0.985
7,C[C@@H]1CCCCO[C@H](CN(C)C(=O)NC2CCCCC2)[C@H](C)CN([C@@H](C)CO)C(=O)c2cc(NC(=O)Nc3cccc4ccccc34)ccc2O1,inactive: 0.996
8,C[C@H]1CCCN(C(=O)CCNS(=O)(=O)c2ccc3c(c2)c(=O)n(C)c(=O)n3C)C1,inactive: 1.01
9,COc1ccc(NC(=O)N(C)C[C@@H]2Oc3ncc(C#C[C@@H](C)O)cc3C(=O)N([C@H](C)CO)C[C@H]2C)cc1,inactive: 0.986
10,O=C(N[C@@H]1CC[C@H](CC(=O)N2CCOCC2)O[C@H]1CO)c1ccccn1,inactive: 1.02
11,C[C@@H]1CN([C@H](C)CO)C(=O)c2cc(NC(=O)Nc3ccccc3)ccc2O[C@@H](C)CCCCO[C@@H]1CN(C)C(=O)c1ccccc1,inactive: 0.998
12,C[C@H](CO)N1C[C@H](C)[C@H](CN(C)Cc2ccc3c(c2)OCO3)Oc2c(NC(=O)Nc3cccc4ccccc34)cccc2C1=O,inactive: 1.01
13,C[C@@H]1CCCCO[C@H](CN(C)C(=O)Nc2cccc3ccccc23)[C@@H](C)CN([C@@H](C)CO)C(=O)c2cc(NC(=O)Cc3ccccc3)ccc2O1,inactive: 1
14,C[C@@H]1CN([C@@H](C)CO)C(=O)c2cc(NC(=O)Nc3ccc(F)cc3)ccc2O[C@@H]1CN(C)C(=O)Nc1cccc2ccccc12,inactive: 1.03
15,CCOC(=O)c1ccc(OCCN2C[C@H](O)[C@@H](O)[C@H](O)[C@H]2CO)cc1,inactive: 0.979
16,O=C(Nc1cc(C(F)(F)F)cc(C(F)(F)F)c1)Nc1c(Br)cc(Br)cc1-c1nn[nH]n1,inactive: 0.921
17,COc1ccc(S(=O)(=O)N(C)C[C@H]2Oc3ccc(N(C)C)cc3CC(=O)N([C@@H](C)CO)C[C@@H]2C)cc1,inactive: 1.02
18,C[C@@H]1CN([C@H](C)CO)C(=O)Cc2cc(NC(=O)Nc3ccc4c(c3)OCO4)ccc2O[C@@H]1CN(C)Cc1ccc(C(=O)Nc2ccccc2N)cc1,inactive: 0.98
19,CCOc1cc(C(C)(C)C)ccc1C1=N[C@@](C)(c2ccc(Cl)cc2)[C@@](C)(c2ccc(Cl)cc2)N1C(=O)N1CCN(CCCS(C)(=O)=O)CC1,inactive: 1.03
20,Cc1ccc(S(=O)(=O)Nc2ccc3c(c2)C(=O)N([C@@H](C)CO)C[C@H](C)[C@H](CN(C)Cc2ccc(C(=O)O)cc2)OCCCC[C@H](C)O3)cc1,inactive: 1
21,Cc1cc(C(=O)O)n[nH]1,inactive: 1.02

row,SMILES,relative growth
1,C[C@H](CO)N1C[C@H](C)[C@@H](CN(C)S(=O)(=O)c2ccc(F)cc2)Oc2ccc(N(C)C)cc2CC1=O,inactive: 0.999
2,Cl.N=C(N)NC(=O)c1nc(Cl)c(N)nc1N,inactive: 1.02
3,Cc1cccc(S(=O)(=O)N2C[C@@H](O)COC[C@H]3O[C@H](CC(=O)NCc4ccc5c(c4)OCO5)CC[C@@H]32)c1,inactive: 1.02
4,C[C@H](CO)N1C[C@H](C)[C@@H](CN(C)C(=O)C2CCCCC2)OCCCC[C@H](C)Oc2ccc(NC(=O)C3CCCCC3)cc2C1=O,inactive: 1.01
5,CNC(=O)C[C@@H]1CC[C@@H]2[C@H](COC[C@@H](O)CN2C(=O)Nc2cccc(OC)c2)O1,inactive: 1.04
6,C[C@@H]1CN([C@@H](C)CO)C(=O)c2cc(NS(=O)(=O)c3cn(C)cn3)ccc2O[C@@H]1CN(C)C(=O)NC1CCCCC1,inactive: 0.975
7,C[C@@H]1CCCCO[C@@H](CN(C)C(=O)Nc2ccccc2)[C@H](C)CN([C@H](C)CO)C(=O)c2cc(NC(=O)NC3CCCCC3)ccc2O1,inactive: 1.03
8,C[C@@H]1CCCCO[C@H](CN(C)C(=O)Nc2ccc3c(c2)OCO3)[C@H](C)CN([C@@H](C)CO)C(=O)c2cc(NS(=O)(=O)c3cccs3)ccc2O1,inactive: 0.925
9,C[C@@H]1CCCCO[C@H](CN(C)Cc2ccc3c(c2)OCO3)[C@H](C)CN([C@@H](C)CO)C(=O)c2cc(NC(=O)Nc3ccc(C(F)(F)F)cc3)ccc2O1,inactive: 1.05
10,Cc1noc(C)c1NC(=O)N(C)C[C@H]1Oc2ccc(NC(=O)C3CC3)cc2C(=O)N([C@H](C)CO)C[C@H]1C,inactive: 0.96
11,C[C@@H]1CCCCO[C@@H](CN(C)C(=O)c2ccccc2)[C@@H](C)CN([C@H](C)CO)C(=O)c2cc(NC(=O)C3CCCCC3)ccc2O1,inactive: 0.993
12,C[C@@H]1CN([C@H](C)CO)C(=O)c2cc(C#Cc3cccnc3)cnc2O[C@@H]1CN(C)Cc1ccc(F)cc1,inactive: 0.982
13,CC(C)(C)[S@](=O)N1Cc2cc(C(=O)NCCc3ccncc3)nc(-c3cccc(-c4ccccc4)c3)c2[C@@H]1CCO,inactive: 0.996
14,COCCNC(=O)C[C@H]1C[C@H]2c3cc(NC(=O)COC)ccc3O[C@H]2[C@H](CO)O1,inactive: 0.984
15,COc1ccc(S(=O)(=O)Nc2ccc3c(c2)C(=O)N([C@@H](C)CO)C[C@@H](C)[C@@H](CN(C)C(=O)c2ccccc2)OCCCC[C@@H](C)O3)cc1,inactive: 1.01
16,CC(C)NC(=O)Nc1ccc2c(c1)C(=O)N([C@@H](C)CO)C[C@@H](C)[C@H](CN(C)C(=O)Nc1ccc(C(F)(F)F)cc1)OCCCC[C@H](C)O2,inactive: 1.02
17,Cc1noc(C)c1S(=O)(=O)Nc1ccc2c(c1)C(=O)N([C@H](C)CO)C[C@@H](C)[C@H](CN(C)S(=O)(=O)c1cn(C)cn1)OCCCC[C@@H](C)O2,inactive: 0.992
18,C[C@@H]1CN([C@H](C)CO)C(=O)c2c(c3ccccc3n2C)-c2ccccc2CO[C@@H]1CN(C)C(=O)NC1CCCCC1,inactive: 1.02
19,C[C@@H]1CCCCO[C@@H](CN(C)C)[C@@H](C)CN([C@H](C)CO)C(=O)c2cc(NS(=O)(=O)c3cn(C)cn3)ccc2O1,inactive: 1
